Read counts are not given, so values of variants with three or more changes are uncertain.
B1: LINE1-full (parent)
chain: UACGUAGGUGGUUUUCCCCUGAUAGUGCUAAGGGGGCCUGGAAGUUUGGACUGGGCAGAGCUCAACACAGCGUGGCAAAGUGGCUGUGGCUAGACUGCCUCUCUGGAUUCCUCGUCACUCAGCAGGGCAUCUCUGAGAGAAAUGCC

Variants of: B1
Experiment: self-cleavage, relative activity (ratio to wild type); higher = more cleavage; in vitro, sequencing; the parent is a self-cleaving ribozyme

Variant	self-cleavage
U12G A107G C111A A117G A141G	1.65
U39A A92G U102C	0.2
U12C U47A A57G A92G U109C	0
A79U U104C U112A A124U A140U	2.17
U47C A65G U119C	0
U12C C68U A124U	0.16
A22G G35C U52C	0.97
U62C A69U A117C A141G	0
A77G U132C A142G	2.15
U39C U52C A141G	0.23
U14C U39C U102C A117G U119A	0
A57U U62A A67G U96A	0
C84U U130C U134C	0.17
G4A A22U C37U A77G U115A	1.75
U14C U26G A65U A77G	0.33
U23C U26C U119C	1.73
G34A U39A A50G U104C A140G	1.67
U23A A64G A129G	0.13
U14C A22G C99G	0.47
G10A U46A A50G A142G	0.65
U39C A77G U134C	2.9
U9C U47C U112C	1.23
C37U U73C U85C	0.06
U112C U130A G135A A140C	1.07

Variant	self-cleavage
A78G U108C A117U	1.21
U81C U115A A129G	2.44
C19U G60A A64G U112A	0.07
U12C A42G C71G U73G	0.34
A57G U62C A124G	0.27
U9C U85A U115C A140G	0.06
U9A U15A A43G U47A U52G U62C U73C A141G	0
U9C G82A A94U G97A A136G A142G	0
C37U U62C U87A A107G C116U	0
U1C C19U U143A	0.65
U15C U45G U143C	1.57
U91C A117G A136G	1.01
U47A A65U U119A	0.19
U91C C116A C145A	0.32
C3U G25C A43U G82A	0.69
U20C A42G A43U U52C G72A	1.49
U62A A117G A140G	0.11
A65U U85A A138G	0.05
U5A U12G U20C U112C U143A	1.12
U73A A107G C111U	1.3
U12C A121C A141G	2.52
U14C U20C U62C U109C A140G	0
U87C C111A A141G	0.28
A43G A57G A79U A140G	1.04

Variant	self-cleavage
U39C U52G A129U A140G	1.57
U13C U46A A138G	1.93
G7U A78G C99U A136U	0.5
U26A U39C A142G	0.74
A2G U85A U132C	0.18
A42G U100A A129G U130C	0.92
U12C A43G A92G U102C	0
A43G A94G U100A	0.49
A43G A124G A140C	0.91
U15C A59U A141G	1.03
U12G A43G U87A C145U	0.13
U26A G54A A78G	0.17
G4A U91C A107U G127A	0.57
A57U G60A U85C A141U	0
A22G A43G U134C A142G	1.56
A42G A67G A142G	0.63
C98A A121G A138G	0.45
U14C U52G A65G	0.09
G36A U81C A117G U130C A140G	0.61
U15C G114A A124U	1.64
U13C G36C A136G	1.39
U46G U52A G89C A117U U132C A136G A138G	0.02
U12C A79G U96A	0.18
C63U U81C U100A A129G	0.26

Variant	self-cleavage
U87C G114A A121G	0.15
U62A A92G A140G	0.06
U9C U39C U85A U87A A121G	0.16
C19U U26A A107U	1.49
U39C A59U A107G U112C	1.8
U5C U9A G35U A64G A78U	0.25
U9G A31U G88A U96G U134C	0.09
A30G A50U A57G C95A U132G	0.17
G7A A22G A77G	2.32
A31U A124G C145U	0
A6U G135A A141G	1.49
A42U C68A U104A	0.03
U62C U73A G105A U112C A117C G135A	0.04
U20A G36C G127U	1.02
U13C A59U C61G A77U	0.03
U14G A94G U134A	0.6
A42U U104C A136U	1.53
U15C A43G A136U	1.02
A2G C76U U85A A94G	0.07
A69G A121G G139A	0.81
U102C A107G A138G	2.16
U45G A121U U130C A142G	1.81
G32A C66U U104A A141G	0.05
G35A C116U A117U U119C U130A	1.41

Variant	self-cleavage
U13A U14C A78G U132C	0.8
U81C A117U U134C	1.29
U39A A64U G89A	0.03
G7A U9C U108C	1.59
A2G C18U A50G U85A U104C	0.18
C38A C51U U143G	0.9
G54U A64G A78G	0
A64U A79G U104A U112A	0.21
U15C U45G U46C A141G	1.15
A92G A117U A140G	0.1
G127U U132C A138G	0.32
U15C U20C C61A U87C U96A U130C	0.09
U14C A30U U73A	0.94
A64U G72U U81C	0.33
A6U A59G A107U	0.25
U96A U108A U134C	0.18
U14A A78G U91C	0.08
U52C A64G A142G	0.07
C19U U47C A94U U96A U115C	0.63
U62A A65G A141G	0.04
G8U U12C U29A	1.43
A2G G8U U9A G72A A77G A140G	0.88
U39C A43G U47C U119C	2.63
G4U A57U U81C	0.3

Variant	self-cleavage
U73A U81C G105A U115A	1.6
U13C A65G A124G U134A	0.1
C98A A117U A129G	0.28
U26C A30U U39C U132A	1.23
U96C U119C U134C	0.32
U85C U102C C111U	0.17
A6G U85A A124G A138C	0.29
C123U G126A A140G	0.75
U87C G88U U104G	0
U45C A78G U85C	0.66
U23C U134C A141G	1.81
A64G A65G U81A U100C	0
U5C U87A A142G	0.13
U46C A69G A78U U81C	1.84
A30G A67G A138U	0
U1C A2U U20C A57G A69U A121U	0.19
U1C U12C A30G U102C	0.97
A57U U73C A121G	0.26
A42G A67G C99A U115C	0
A24U A64U A94G U134A	0.08
U52C U62C U119C A124G A141G C146G	0
U12G U45C A64U U85A A117G C145U	0.46
U47C A79U U100C U119C	2.7
U13C U134C A141G	2.17

Variant	self-cleavage
U47C U115A A138G A141G	1.55
A6G U26C G33A	0.55
C63U A69G A117G	0.11
A59G G75A A140G	0.04
A78G U85A U87C	0
G72A G125U A136U	1.79
U20A U26A U143C	1.45
A2G A6G U96C U115A A117G	0.66
C3U A24U G72A	0.58
G88A U91C A138U	0.08
U13C U14C U47A	1.07
U14C U81A C99U A124U C133U A141G	0.85
C3A A64G A141G	0.15
U12C A22G U87A U91C A117U A124U	0.43
A24C A42G A117G	2.3
G8U U96C U112C	0.27
A22G A57U U132A	0.22
U9C U47C A59C U102C	1.84
A77U A78U U108C	1.73
A69G A78U A129G	0.8
U13C G33A U81A	1.4
U5C G40A U81A	0.28
U100C A117U U143A	2.35
